# Data from article PMC4336329 (PLoS ONE, 2015).
# About 14,000 (4.5%) of roughly 310,000 compounds showed an effect of 50% or more. Effects have a minus sign here. This is one part of the list.
# Target: human ether-à-go-go-related gene (hERG) potassium channel (human, UniProt Q12809)
# Experiment: primary screen, population patch clamp on CHO cells stably expressing hERG
# 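Further: peak tail current of the secondary pulse compared with the same well before compound.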
# human ether-à-go-go-related gene (hERG) potassium channel, sequence (Q12809 whole entry, looked up): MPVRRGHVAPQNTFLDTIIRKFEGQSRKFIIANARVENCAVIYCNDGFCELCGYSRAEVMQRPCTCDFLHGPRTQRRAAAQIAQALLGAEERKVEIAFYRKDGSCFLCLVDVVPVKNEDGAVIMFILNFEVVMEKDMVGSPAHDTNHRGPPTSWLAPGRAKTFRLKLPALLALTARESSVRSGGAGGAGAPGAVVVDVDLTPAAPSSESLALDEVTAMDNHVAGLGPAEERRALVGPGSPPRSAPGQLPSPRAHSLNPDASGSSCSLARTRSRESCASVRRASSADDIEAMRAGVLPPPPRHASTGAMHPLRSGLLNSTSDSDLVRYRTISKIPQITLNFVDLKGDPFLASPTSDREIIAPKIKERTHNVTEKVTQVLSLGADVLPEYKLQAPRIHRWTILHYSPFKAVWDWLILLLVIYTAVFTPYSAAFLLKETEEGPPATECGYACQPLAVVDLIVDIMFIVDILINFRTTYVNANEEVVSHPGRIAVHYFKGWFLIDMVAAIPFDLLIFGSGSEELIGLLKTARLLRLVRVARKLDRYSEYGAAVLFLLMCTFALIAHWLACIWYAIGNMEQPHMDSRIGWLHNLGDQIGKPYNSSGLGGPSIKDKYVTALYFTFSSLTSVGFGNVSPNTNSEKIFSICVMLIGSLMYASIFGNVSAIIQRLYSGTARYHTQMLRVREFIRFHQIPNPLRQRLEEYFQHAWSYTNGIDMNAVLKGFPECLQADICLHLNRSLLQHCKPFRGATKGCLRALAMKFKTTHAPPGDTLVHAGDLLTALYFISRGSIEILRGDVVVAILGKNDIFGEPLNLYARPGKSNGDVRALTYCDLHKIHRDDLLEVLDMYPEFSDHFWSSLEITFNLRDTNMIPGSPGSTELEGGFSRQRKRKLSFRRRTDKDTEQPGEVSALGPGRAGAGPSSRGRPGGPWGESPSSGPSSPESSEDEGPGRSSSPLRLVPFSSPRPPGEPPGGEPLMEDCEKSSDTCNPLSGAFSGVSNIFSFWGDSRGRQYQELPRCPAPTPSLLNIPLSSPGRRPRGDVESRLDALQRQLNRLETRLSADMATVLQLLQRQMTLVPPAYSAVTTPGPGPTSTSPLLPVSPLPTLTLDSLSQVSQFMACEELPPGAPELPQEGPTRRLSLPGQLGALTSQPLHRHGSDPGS
row,SMILES,"hERG current change (%, negative = inhibition) at 10uM"
1,CCOc1ccccc1OCCCC(=O)Nc1cccc(S(=O)(=O)N2CCOCC2)c1,-16%
2,CC(=O)c1c(C)[nH]c(C(=O)N(C)C(c2ccccc2)c2ccccc2)c1C,3.63%
3,Cc1n[nH]c(C)c1CS(=O)(=O)c1ccccc1,22.3%
4,Nc1ncnc2c1cnn2-c1ccccc1,2.88%
5,CCOc1ncccc1C(=O)Nc1cccc(C(=O)Nc2cccc(S(=O)(=O)CCO)c2)c1,-15.5%
6,COc1ccc(CNc2nc3nc(C)c(Cl)c(C)n3n2)cc1,2.05%
7,CC(C)c1ccc(Nc2nc(Cl)nc(NCc3ccco3)n2)cc1,4.18%
8,CC1CC(C)CN(C(=O)COC(=O)c2ccc[nH]c2=O)C1 (stereo not shown),0.743%
9,Cc1cccc(/C=C/c2onc(C)c2S(=O)(=O)N2CCC(C(=O)N3CCCCCC3)CC2)c1,7.22%
10,COc1cccc(-c2nc(CS(=O)(=O)CC(=O)N3CCc4ccccc4C3)c(C)o2)c1,-26.2%
11,CC(=O)c1cccc(-n2c(CCC(=O)O)ccc2-c2cccs2)c1,-4.11%
12,Cc1ccc(C(=O)/C=C/c2ccc3c(c2)OCO3)o1,0.363%
13,Cc1cccc(NC(=O)C(=O)NCCCc2ccccc2)c1,6.38%
14,Cc1cc(OC(=O)CNC(=O)OC(C)(C)C)c2c(C)cc(=O)oc2c1,-9.87%
15,CCC(=O)Nc1nc(-c2ccccc2)ns1,-15.3%
16,Cc1nc2c(c(=O)n1CCC1=CCCCC1)c1nc3ccccc3nc1n2/N=C/c1ccccc1,-2.97%
17,O=[N+]([O-])c1cccnc1N1CCC(c2cc(-c3ccc(Cl)cc3)n[nH]2)CC1,-9.69%
18,O=C1NC(=S)NC(=O)C1=Cc1ccc(OCC(=O)N2CCCC2)cc1,20.4%
19,CCOC(=O)C1CCN(Cc2c(O)ccc3ccccc23)CC1,-22.2%
20,Cc1ccc2nc(-c3ccc(SCC(=O)Nc4cc(C)on4)nc3)[nH]c2c1,3.44%
21,COc1ccc(CN(CC(=O)NCC2CCCO2)C(=O)CCC(=O)Nc2nccs2)cc1 (stereo not shown),18.3%
22,COc1ccc(C(=O)c2sc(Nc3ccccc3)nc2N)cc1OC,15.9%

row,SMILES,"hERG current change (%, negative = inhibition) at 10uM"
1,COC(=O)c1ccccc1NC(=O)C(C)NS(=O)(=O)c1ccc(OC)cc1 (stereo not shown),-10.4%
2,O=C(Nc1nnc(C2=COCCO2)o1)c1cccc([N+](=O)[O-])c1,12.5%
3,O=S(=O)(c1ccc(Br)cc1)N1CCC(c2nc3ccccc3[nH]2)CC1,-21.5%
4,O=C1CCCCC(=O)c2ccccc2N1,18.8%
5,CCOC(=O)N1CCC2(CC1)C(C#N)=C(N)OC1=C2C(=O)CC(C)C1 (stereo not shown),6.73%
6,CC(=O)C1=C(O)C(=O)N(c2cccnc2)C1c1ccc([N+](=O)[O-])cc1 (stereo not shown),-11.6%
7,CCN(CC(=O)N1CCOCC1)S(=O)(=O)c1ccc(C)cc1,7.66%
8,CC(=O)NC12CC3CC(C1)CC(C(=O)NCC(=O)Nc1c(C)cc(C)cc1C)(C3)C2,10.2%
9,S=C(NCc1ccco1)N1CCN(c2ccccn2)CC1,-3.91%
10,Nc1nncn1C(=O)c1c(Cl)cccc1Cl,-1.15%
11,COc1ccc(F)cc1C(=O)C1CCCN(Cc2ccc(O)cc2)C1 (stereo not shown),-52%
12,O=C(OCCc1cc2ccccc2c(=O)o1)c1ccco1,-10.5%
13,O=C(NCC1CCCCC1)c1cc(Br)ccc1Cl,2.12%
14,COCc1c(C#N)c(NCCc2ccc(F)cc2)nc(C)c1[N+](=O)[O-],1.39%
15,CCN(CC(=O)Nc1ccc(S(=O)(=O)N2CCCCC2)cc1)Cc1ccccc1,-23.7%
16,Cc1cccc(OCC(O)CN2CCN(CCN3C(=O)c4cccc5cccc(c45)C3=O)CC2)c1C (stereo not shown),-35.7%
17,Cn1c(SCC(N)=O)nnc1-c1ccccc1,0.601%
18,Nc1nnn(CC(=O)N/N=C/c2ccc(Cl)cc2Cl)n1,8.17%
19,Cc1ccc(S(=O)(=O)n2nc(-c3ccco3)nc2SCc2ccccc2)cc1,2.23%
20,CCCSc1nnc(CSc2ncccn2)n1C,4.49%
21,Cc1ccc(NS(=O)(=O)c2ccc(NC(=O)c3ccc(-c4ccccc4)cc3)cc2)c(C)c1,0.631%
